The source of these data is the RNAGym collection of RNA variant scans (doi:10.1093/nar/gkz1192).

Read counts are not given, so values of variants with three or more changes are uncertain.

B1: CPEB3 Ribozyme (parent)
chain: UAACAGGGGGCCACAGCAGAAGCGUUCACGUCGCAGCCCCUGUCAGAUUCUGGUGAAUCUGCGAAUUCUGCUGUAUAUCUC

The variants in this series derive from B1. Kind of series: self-cleavage, relative activity (ratio to wild type); higher = more cleavage; in vitro, sequencing. In outline: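 For each CPEB3 ribozyme variant, relative activity is its cleaved/total read fraction divided by the unmutated ribozyme's. Barcoded error-prone PCR libraries were transcribed by T7 RNA polymerase (5 hours, 37°C) and held in DNase I for 15 min before an EDTA stop, with cleavage occurring throughout. Template-switching reverse transcription and Illumina sequencing were used to read the RNAs. A 5-read minimum applied, and results are the mean of three batches.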
Regarding A2C U41A A47U U58A, the self-cleavage is 0.06.
Next, A2G A15U A75U U78A: 0.47.
Next, U1C U43A A65G: 0.55; A2G A65G U66C A75G: 0.17.
For U1C U31A G46U U48C U80A, the self-cleavage is 0.2.
Next, U1C U43A U51C: 1.15; A2G A13U U49C U66C U78A: 0.04; U1C U26C U74G: 0.65.
Next, A2G A18U U43C U60C U72A: 0.05; A2G A5U A35G A56G U72A U78C: 0.94; U1C U54C U66C A77G: 0.23.
Next, A2G A18U A35U U41A U43C: 0.46; A2G A45G U49A: 0.42.
On to U1G A2G G36A C38U U41C U49C U54C, for which the self-cleavage was 0.36.
Next, A2G A5G U54C U60C: 0.11.
For the variant A2G A15G U25A U41C G42U G55U A64G, the self-cleavage amounted to 0.04.
As for U1G A65G U80G, the self-cleavage is 0.56.
Regarding A2G A5G A21G U76A, the self-cleavage was determined as 0.15.
The value for A2C A28G G61A was 0.51; that for A2G A5U A35G U48C C50U was 0.12.
On to U1C U41C A56G U69A U80A, for which the self-cleavage is 0.49.
Next, A2C A77G C81A: 1.19; A2G A21G A64G U67C U72C: 0.09.
Turning to A2G A20U U60C U76C, the self-cleavage is 0.19.
On to A2G A3U C27A C38A G42A, for which the self-cleavage was determined as 0.23.
Next, A2G A5U G10A U51C U76C: 0.06.
On to A2G A18G U41C A57G U58C, for which the self-cleavage amounted to 0.15.
As for A2G A5G C11U A28G U66C C79G, the self-cleavage was found to be 0.24.
In the case of U1G G10C A20G A57G U80C, the self-cleavage is 0.48.
Next, U1C U41A U67C: 0.12.
The value for A2G A3U U26A U31C U49C A56G was 0.92; that for A2G A13G C17A C27U C29U A75G U78C was 0.06; that for U1C U54C U72A A77G was 0.84.
The value for A2G A5U A13G C37G U48C was 0.03; that for A2G A21G A28U A64G was 0.35.
In the case of A2G A35U A56G, the self-cleavage amounted to 0.6.
Next, U1G A18U A45G C50U: 0.4; A2G A5G C12U U54C C71A: 0.17.
The value for A2G A3G A13U A15U A35U G46A was 0.49; that for A2G A13U U51C U66C was 0.22.
Next, A2C A5G G9A A21G U26C A28C: 0.05; A2G A5G A28G A35G U67A: 0.17; A2G A18G U78A: 0.69.
As for A2G A13G C59A, the self-cleavage was 0.24.
In the case of A2G A13G U51A U54G A64U U72C, the self-cleavage came out at 0.08.
Next, A2C G9U A13G U49A U51C: 0.05; A2G A13U A28G C38G: 0.08; A2C A3G G19U A20G U25A U43G U48C: 0.05.
Next, A2G A15G A21G A57G U66C A77G: 0.52; U1G A15G U26A U69A: 0.23; A2C A28U U72C: 0.32.
The value for A2G A15U U49A was 0.08; that for U1C U31C C40A A65G was 0.2.
U1C U31A U41G U69A U80C: the self-cleavage amounted to 0.07.
Next, U1G A18U G42A U69A: 0.31; U1G A13U U26C U66C U76A: 0.13.
Next, A2C U31A U51C A64G U67C: 0.11.
In the case of A2G A13G C38U A64G, the self-cleavage is 0.5.
Next, A2G A57C A65U U80C: 0.26; A2G A3G A18U U25C: 0.2.
The value for A2C U41C C68A was 0.35.
Next, U1C U26C A45C: 0.17.
Regarding A2G A20G U54G, the self-cleavage was 0.62.
Next, A2G A35U U72A: 0.21; A2G A3G A15U A20G C32U U48C U76G: 0.08.
On to A2G A18U A28U U76G, for which the self-cleavage is 0.61.
In the case of A2G A5C A13C A35G, the self-cleavage stood at 1.19.
The value for A2G A28U U76A was 0.38.
Take U1C U48C C71U: the self-cleavage was found to be 0.2.
The value for A2G A5G U26C C29U A56G was 0.43; that for A2C C11G U41A U76A U78A was 0.05; that for U1C U26A U51A U80C was 0.65.
The value for U1C U49A U58C C62A was 0.13; that for U1C U26A A56U A77G was 0.48; that for U1G A5G A64G was 0.45.
The value for U1C U41G G70C was 0.06; that for A2G A20G U25A A47G A56G C62U G73U was 0.03.
A2G A45G A56U: the self-cleavage is 0.53.
In the case of A2G A64G U67A U69A, the self-cleavage was 0.24.
For A2G A5U G9U U25C C29U U41C, the self-cleavage came to 0.07.
Next, A2G A47G U54G U76C: 0.39.
Next, U1G A18G A35G U54C C68U: 0.47.
The value for A2G A45U A65C was 0.28.
